{
  "source": "paper PMC8468037",
  "about": "“Dimerization of Human Angiogenin and of Variants Involved in Neurodegenerative Diseases” (International Journal of Molecular Sciences, 2021)",
  "proteins": {"B1": {"name": "S28N-ANG (human angiogenin variant S28N) (enzyme)", "chain": "not shown", "notes": "Human angiogenin, 123 residue protein with S28N, pathogenic variant found in ALS and PD patients; theoretical MW 14,148; Made by site-directed mutagenesis of the wt-ANG cDNA; also called S28N-D (its dimer)"}, "B2": {"name": "R121C-ANG (human angiogenin variant R121C) (enzyme)", "chain": "not shown", "notes": "Human angiogenin, 123 residue protein with R121C, pathogenic variant found in ALS and PD patients; theoretical MW 14,068; Made by site-directed mutagenesis of the wt-ANG cDNA; also called R121C-D (its dimer); R121G-ANG (printed once in the discussion)"}},
  "target": "the molecule itself",
  "test": "SEC; protein lyophilized from 40% HAc (about 25 mg/mL), powder solubilized in 0.40 M NaPi, pH 6.7; Superdex 75 Increase 10/300 in 0.40 M NaPi, pH 6.7; dimer extent = peak area vs. total area eluted",
  "data": [
    {"protein": "B1", "values": [
      {"measurement": "stoichiometry N", "value": 1.91}
    ]},
    {"protein": "B2", "values": [
      {"measurement": "stoichiometry N", "value": 1.92}
    ]}
  ]
}
